Results published in patent US5859257A, “Isoxazole compounds as cyclooxygenase inhibitors” (G. D. Searle & Co., priority 1996, dated 1999).
For at least one compound, name, drawing or mass did not settle the structure.

What was measured:
COX-1 = assay: Evaluation of COX-1 activity in vitro (PGE2 ELISA, recombinant enzyme); type: biochemical, human or murine; conditions: arachidonic acid 10 μM, pH 8.0, pre-incubation 10-20 minutes
Description: (§1) a. Preparation of recombinant COX baculoviruses
(§2) Recombinant COX-1 and COX-2 were prepared as scribed by Gierse et al, [J. Biochem., 305, 479-84 (1995)]. […] Recombinant baculoviruses were isolated by transfecting 4 μg of baculovirus transfer vector DNA into SF9 insect cells (2×10^8) along with 200 ng of linearized baculovirus plasmid DNA by the calcium phosphate method. See M. D. Summers and G. E. Smith, A Manual of Methods for Baculovirus Vectors and Insect Cell Culture Procedures, Texas Agric. Exp. Station Bull. 1555 (1987). Recombinant viruses were purified by three rounds of plaque purification and high titer (10^7 -10^8 pfu/mL) stocks of virus were prepared. For large scale production, SF9 insect cells were infected in 10 liter fermentors (0.5×10^6 /mL) with the recombinant baculovirus stock such that the multiplicity of infection was 0.1. After 72 hours the cells were centrifuged and the cell pellet homogenized in Tris/Sucrose (50 mM: 25%, pH 8.0) containing 1% 3-[(3-cholamidopropyl)dimethylammonio]-1-propanesulfonate (CHAPS). The nomogenate was centrifuged at 10,000×G for 30 minutes, and the resultant supernatant was stored at -80° C. before being assayed for COX activity.
(§3) COX activity was assayed as PGE2 formed/μg protein/time using an ELISA to detect the prostaglandin released. CHAPS-solubilized insect cell membranes containing the appropriate COX enzyme were incubated in a potassium phosphate buffer (50 mM, pH 8.0) containing epinephrine, phenol, and heme with the addition of arachidonic acid (10 μM). […] Any reaction between the arachidonic acid and the enzyme was stopped after ten minutes at 37° C./room temperature by transferring 40 μl of reaction mix into 160 μl ELISA buffer and 25 μM indomethacin. The PGE2 formed was measured by standard ELISA technology (Cayman Chemical).

COX-2 = assay: Evaluation of COX-2 activity in vitro (PGE2 ELISA, recombinant enzyme); type: biochemical, human or murine; conditions: arachidonic acid 10 μM, pH 8.0, pre-incubation 10-20 minutes
Description: The COX-2 inhibition activity of the compounds of this invention illustrated in the Examples was determined by the following methods.
as §1, §2, §3

| Compound | IC50 (COX-1) | IC50 (COX-2) |
| --- | --- | --- |
| COc1ccc(-c2noc(CCC(=O)O)c2-c2ccc(S(N)(=O)=O)cc2)cc1F [Example 2, [4-[4-(Aminosulfonyl)phenyl]-3-(3-fluoro-4-methoxyphenyl)isoxazol-5-yl]propanoic acid] | 17400 nM | 900 nM |
| NS(=O)(=O)c1ccc(-c2c(-c3ccccc3)noc2CCC(=O)O)cc1 [Example 3, [4-[4-(Aminosulfonyl)phenyl]-3-phenylisoxazol-5-yl]propanoic acid] | 600 nM | 2600 nM |
| CC(CC(=O)O)Cc1onc(-c2ccccc2)c1-c1ccc(S(N)(=O)=O)cc1 (stereo not shown) [Example 34, [4-[4-(Aminosulfonyl)phenyl]-3-phenylisoxazol-5-yl]-3-methylbutan-1-oic acid] | > 100000 nM | 3500 nM |
| COC(=O)CCCc1onc(-c2ccc(Cl)c(Cl)c2)c1-c1ccc(S(N)(=O)=O)cc1 [Example 62, Methyl[4-(4-aminosulfonylphenyl)-3-(3,4-dichlorophenyl)isoxazol-5-yl]butanoate] | > 100000 nM | – |
| NS(=O)(=O)c1ccc(-c2c(-c3ccc(Cl)c(Cl)c3)noc2CCCC(=O)O)cc1 [Example 63, [4-(4-aminosulfonylphenyl)-3-(3,4-dichlorophenyl)isoxazol-5-yl]butanoic acid] | > 100000 nM | 200 nM |
| COC(=O)CCc1onc(-c2ccc(Cl)c(Cl)c2)c1-c1ccc(S(N)(=O)=O)cc1 [Example 64, Methyl[4-(4-aminosulfonylphenyl)-3-(3,4-dichlorophenyl)isoxazol-5-yl]propanoate] | > 100000 nM | 500 nM |
| NS(=O)(=O)c1ccc(-c2c(-c3ccc(Cl)c(Cl)c3)noc2CCC(=O)O)cc1 [Example 65, [4-(4-Aminosulfonylphenyl)-3-(3,4-dichlorophenyl)isoxazol-5-yl]propanoic acid] | 4800 nM | 100 nM |
